According to PubChem BioAssay AID1345083 (National Center for Advancing Translational Sciences (NCATS), 2018):
Several values for one entry are separate records, joined by “and”; a condition that tells them apart may be missing. Equal entries are not always repeated. Out of some 94,000 compounds screened, about 6,200 (6.6%) were called active. Inconclusive results, whose numbers are uncertain, are shown with a selection of clear calls. Calls come from the whole dose curve; as a rule, active = well fitted inhibition curve with a large enough effect; inconclusive = small, poorly fitted or top-dose-only effect; inactive = flat fitted curve, though single readings scatter. Where the call is inconclusive, the potency comes from a doubtful curve fit.
Potency is the fitted concentration of half-maximal effect; tags give direction and shape of the fitted curve.

Experiment: Cytotoxic Profiling in HEK 293 Cell Line of Diverse Libraries Using Quantitative High-Throughput Screening; note: nearly all actives have a fitted effect of over 60% in size
Conditions: HEK 293 viability, ATP luminescence (CellTiter-Glo), 48-72 h; series mostly up to 115 µM
Method in brief: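 HEK 293 seeded at 250 cells/well receive compound via pintool. After 48 or 72 hr at 37 degree Celsius, 5% CO2 and 95% humidity, CellTiter-Glo is dispensed and luminescence read following 10 min at room temperature.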
For `CCCC(=O)N1CCC(O)(c2ccccc2)[C@H](N2CCCC2)C1` (stereo partly drawn), the Potency was inconclusive: 50.1 µM [inhibitor, partial curve, poor fit].
In the case of `O=C(c1ccccc1F)N1CCC2(CC(c3cccc(C(F)(F)F)c3)=NO2)C1` (stereo not drawn), the Potency is reported as inconclusive: 100 µM [inhibitor, single point].
In the case of `CC(C)N1C[C@H](O)C[C@H]1c1nnc2n1CCN(C(=O)c1cccc3nccnc13)CC2`, the Potency is reported as “inactive”.
With `COc1ccc(N2Cc3c(NCCc4ccc(Cl)cc4)ncnc3N(C)CC2=O)cc1` the Potency was inconclusive: 89.1 µM [inhibitor, single point].
With `Cc1nn(-c2ccc(F)cc2)c(Oc2cccc(F)c2)c1CCC(=O)NCC1CC1` the Potency was inconclusive: 50.1 µM [inhibitor, partial curve, poor fit].
For `Cc1nn(-c2ccccc2)c(C)c1CC(=O)NC1CCCc2c1[nH]c1ccccc21` (stereo not drawn), the Potency was inconclusive: 39.8 µM [inhibitor, full curve, poor fit].
With `CCc1noc(-c2cn(C3CCCN(C(=O)c4ccccc4)C3)nn2)n1` (stereo not drawn) the Potency was “inactive”.
With `Cc1ccc(CN2CCN(c3cc(C)nc(N)n3)CC2CCO)cc1` (stereo not drawn) the Potency was inconclusive: 56.2 µM [inhibitor, partial curve, poor fit].
With `O=C(COc1ccccc1)N1CC(CNc2cccnc2)C2(C1)CN(c1ccccc1)C2` (stereo not drawn) the Potency was active: 70.8 µM.
With `COc1ccc(C(=O)N[C@H]2C[C@@H](Cc3cc(CN4CCOCC4)on3)C2(C)C)cc1` the Potency was inconclusive: 89.1 µM [inhibitor, partial curve, poor fit].
In the case of `O=C(CN1C(=O)NC(c2ccc(Cl)cc2)C2=C1COC2=O)Nc1ccc(F)c(Cl)c1` (stereo not drawn), the Potency is reported as inconclusive: 25.1 µM [inhibitor, partial curve, poor fit].
With `Fc1ccc(-c2ccc3ncc(Nc4ccc(Cl)cn4)n3n2)cc1` the Potency was active: 100 µM.
For `CCCCc1cc(C[C@H]2CNCC[C@H]2CC(=O)N2CCC(Cc3ccccc3)CC2)no1`, the Potency was inconclusive: 20 µM [inhibitor, full curve, poor fit].
For `COc1ccc([C@H]2C[C@@H](O)[C@@H](O)[C@@H]2NCc2nc3ccccc3n2C)cc1`, the Potency was “inactive”.
In the case of `CCCc1noc(CN2C(=O)NC(c3ccccc3OC)C3=C2COC3=O)n1` (stereo not drawn), the Potency is reported as “inactive”.
For `CCCN1C(=O)Cc2ccccc2C1C(=O)N1CCN(c2ccccc2)CC1` (stereo not drawn), the Potency was inconclusive: 70.8 µM [inhibitor, partial curve, poor fit].
For `Cc1nnc2ccc(N3CCCC(NC(=O)c4ccc(Cl)nc4)C3)nn12` (stereo not drawn), the Potency was inconclusive: 56.2 µM [inhibitor, partial curve, poor fit].
In the case of `O=C(C1CCCCC1)N1CCC(c2noc(CO)n2)C1` (stereo not drawn), the Potency is reported as “inactive”.
In the case of `CCN1c2cc(C(=O)Nc3cccc(OC(F)(F)F)c3)ccc2C(=O)N2CCCCCC21` (stereo not drawn), the Potency is reported as inconclusive: 28.2 µM [inhibitor, full curve, poor fit].
With `O=C(c1cccc(Cl)c1)N1CCN(C(=O)c2nnn3c2COC(c2ccc(F)cc2)C3)CC1` (stereo not drawn) the Potency was inconclusive: 50.1 µM [inhibitor, partial curve, poor fit].
For `CC(C)NC(=O)c1cccc2c1CCN2C(=O)C1CC1`, the Potency was “inactive”.
With `CC1CCCN(C(=O)CNC(=O)c2ccc(-c3cnc4ccccc4c3)cc2)C1` (stereo not drawn) the Potency was inconclusive: 44.7 µM [inhibitor, partial curve, poor fit].
For `COC(=O)[C@@H]1Cc2c([nH]c3ccccc23)[C@H]2C[C@@H](NC3CC3)C[C@@H](c3ccc(F)cc3)N21`, the Potency was active: 8.91 µM.
With `O=c1[nH]c(C2CCCN(Cc3ccccc3)C2)nc2ccc(F)cc12` (stereo not drawn) the Potency was inconclusive: 44.7 µM [inhibitor, partial curve, poor fit] and active: 50.1 µM.
For `CN(C)C[C@H]1C[C@H](CO)CN(C(=O)c2ccccc2OCc2ccccc2)C1`, the Potency was inconclusive: 39.8 µM [inhibitor, single point].
In the case of `Cc1nc2scc(CC(=O)NC(C)C)n2c(=O)c1-c1cc(C)n(-c2cccc(F)c2)n1`, the Potency is reported as “inactive”.
With `CC(=O)Nc1cccc(-c2cc3c(cn2)CN(Cc2ccccc2)CCN3)c1` the Potency was inconclusive: 112 µM [inhibitor, partial curve].
For `Cc1noc([C@@H]2C[C@H](NC(=O)c3ccc(-c4ccccc4)cc3)CN2C)n1`, the Potency was inconclusive: 79.4 µM [inhibitor, partial curve].
In the case of `CCc1ccc(C(=O)N2CCN(C(=O)c3nnn4c3COC(c3ccc(C)cc3)C4)CC2)cc1` (stereo not drawn), the Potency is reported as inconclusive: 8.91 µM [inhibitor, full curve, poor fit].
In the case of `CC1=NS(=O)(=O)N(C)C=C1C(=O)OCc1nc(-c2ccc(C(F)(F)F)cc2)no1`, the Potency is reported as active: 39.8 µM.
For `COCCNC(=O)CNC(=O)c1ccc(-c2cccc(C(F)(F)F)c2)cc1`, the Potency was inconclusive: 12.6 µM [inhibitor, full curve, poor fit].
In the case of `Cc1ccc(C(=O)N2CCC(c3nc(-c4ccccc4)no3)C2)s1` (stereo not drawn), the Potency is reported as inconclusive: 44.7 µM [inhibitor, partial curve, poor fit].
With `Cc1ncsc1CCCNc1nc(-c2ccccn2)nc2c1CCNCC2` the Potency was “inactive”.
In the case of `Cc1nn(-c2ccccc2)c(Oc2ccccc2F)c1CCC(=O)NC1CC1`, the Potency is reported as inconclusive: 50.1 µM [inhibitor, partial curve, poor fit].
In the case of `COc1cccc(-c2n[nH]c3c2CN(C(=O)c2oc(C)cc2C)CC3)c1`, the Potency is reported as inconclusive: 79.4 µM [inhibitor, partial curve].
In the case of `COc1cccc(N2CC(C(=O)NCc3cccs3)NC2=O)c1` (stereo not drawn), the Potency is reported as inconclusive: 70.8 µM [inhibitor, full curve, poor fit].
In the case of `COc1ccc(C(=O)N2CC(C(=O)NC3CCCCC3)C3(CCOCC3)C2)cc1` (stereo not drawn), the Potency is reported as “inactive”.
For `CC1(COc2ccc(-c3nc(COc4ccccc4)no3)cn2)CCCNC1` (stereo not drawn), the Potency was inconclusive: 35.5 µM [inhibitor, partial curve, poor fit].
For `COc1ccc(-c2cc(N3CCC(NC(=O)Cc4c(F)cccc4Cl)CC3)n[nH]2)cc1`, the Potency was inconclusive: 44.7 µM [inhibitor, partial curve, poor fit].
With `O=C1CC(c2noc(-c3ccc(F)cc3)n2)CN1C1CCCCC1` (stereo not drawn) the Potency was inconclusive: 89.1 µM [inhibitor, single point].
In the case of `CN(CC#N)C(=O)c1cc(-c2ccc(C(F)(F)F)cc2)nc2c1cnn2C`, the Potency is reported as inconclusive: 79.4 µM [inhibitor, partial curve, poor fit].
For `COC(=O)c1ccc(NC(=O)c2cnc(-c3ccc(C)cc3)nc2-c2ccncc2)cc1`, the Potency was “inactive”.
With `O=C(CN1C(=O)NC(c2ccc(Cl)cc2)C2=C1COC2=O)Nc1ccc(Cl)cc1F` (stereo not drawn) the Potency was inconclusive: 39.8 µM [inhibitor, full curve, poor fit].
In the case of `CC(=O)Nc1ccc(S(=O)(=O)N[C@H]2CO[C@H]3[C@@H]2OC[C@H]3OC(=O)Nc2cccc3ccccc23)cc1`, the Potency is reported as “inactive”.
For `CCc1ccccc1NC(=O)Cn1c(-c2ccccc2)nc(C)cc1=O`, the Potency was inconclusive: 70.8 µM [inhibitor, single point].
With `Cc1ccccc1CC(=O)N1CCC(Cc2nc(-c3cnccn3)no2)CC1` the Potency was “inactive”.
For `Cc1ccc(C(=O)N[C@H]2C[C@@H](c3nc(Cc4ccccc4)no3)N(C)C2)cc1`, the Potency was inconclusive: 100 µM [inhibitor, partial curve].
For `CN(C)C[C@@H]1CN(C)C[C@H]1NS(=O)(=O)c1ccc(C(F)(F)F)cc1`, the Potency was inconclusive: 89.1 µM [inhibitor, single point].
In the case of `CCOCC(=O)Nc1nn(-c2ccc(F)cc2)c2cccc(N3CCOC3=O)c12`, the Potency is reported as inconclusive: 89.1 µM [inhibitor, single point].
With `O=C(c1ccccc1Cl)N1CCCN(c2ccc3nnc(C4CC4)n3n2)CC1` the Potency was “inactive”.
In the case of `Cc1nn(-c2ccccc2[N+](=O)[O-])c(C)c1[C@@H]1C=C[C@@H](NCc2ccc(C(C)C)cc2)C1`, the Potency is reported as active: 20 µM.
For `CC1(c2ccccc2)N(Cc2cccnc2)C(=O)OC12CCN(Cc1ccccc1Cl)CC2` (stereo not drawn), the Potency was inconclusive: 50.1 µM [inhibitor, partial curve, poor fit].
With `COCC(=O)N1CC[C@]2(O)CCN(C(=O)c3ccc(OC)o3)C[C@@H]2C1` the Potency was “inactive”.
For `CC(C)n1cc(-c2cc(C(=O)N3CCC(C)(C)C3)c3ccc(F)cc3n2)cn1`, the Potency was inconclusive: 39.8 µM [inhibitor, full curve].
For `O=C(Cn1nc2c(cc1=O)CCCC2)NCCn1ccc2c(Cl)cccc21`, the Potency was inconclusive: 89.1 µM [inhibitor, single point].
In the case of `NC(=O)C(=O)N1CCN2C(=O)c3cc(-c4ccc(Cl)cc4)ccc3NC(=O)[C@@H]2C1`, the Potency is reported as inconclusive: 79.4 µM [inhibitor, partial curve].
For `Cc1ccc(-c2cn3cc(C(=O)NCCc4ccccc4)nc3s2)cc1`, the Potency was “inactive”.
With `O=C(O)Cn1ccc2cc(OCC3CCN(C(=O)Cc4ccccc4)CC3)cnc21` the Potency was “inactive”.
With `O=C(NC1C[C@H]2CC[C@@H](C1)N2C(=O)c1ccoc1)c1ccncc1` (stereo partly drawn) the Potency was “inactive”.
In the case of `CC(=O)Nc1ccc(CC(=O)N2CCC(C)(c3noc(-c4cccnc4)n3)CC2)cc1`, the Potency is reported as inconclusive: 89.1 µM [inhibitor, single point].
For `COc1ccccc1-c1cccc(C=O)c1`, the Potency was inconclusive: 112 µM [inhibitor, partial curve].
In the case of `O=C(NCc1ccccc1)c1cn(C2CN(C(=O)Nc3ccc4c(c3)OCCO4)C2)nn1`, the Potency is reported as active: 35.5 µM.
In the case of `COc1ccc(CNC(=O)c2cc3n(n2)CC(c2ccc4c(c2)OCO4)OC3)c(OC)c1` (stereo not drawn), the Potency is reported as active: 35.5 µM.
